About 1,200 (2.5%) of roughly 48,000 compounds were called active. About 2% were inconclusive and are not listed.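 Rule for the calls: active = activation of at least 60% and not above a set upper limit (about 1 call in 100 departs from these limits); inconclusive = activation of 40% to 60%, or above that upper limit; inactive = activation under 40%.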 The list shows a part of the results.

The experiment has as its target Probable G-protein coupled receptor 32 (Homo sapiens) (UniProt O75388). The experiment can be described thus: qHTS for Agonists of Human Resolvin D1 Receptor DRV1. Particulars: CHO-K1 GPR32 beta-arrestin PathHunter luminescence, 90 min; at 76.9 µM; hits give high values; zero percent set by DMSO-only wells. In short, it runs like this: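 Beta-arrestin recruitment read-out: luminescence from complemented beta-Gal in CHO-K1 GPR32 PathHunter cells, measured 1 h after detection reagent at ambient temperature following 90 min compound exposure at 37 °C; DMSO served as basal (EC0) control.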
Sequence of UniProt O75388 (O75388 whole entry, looked up): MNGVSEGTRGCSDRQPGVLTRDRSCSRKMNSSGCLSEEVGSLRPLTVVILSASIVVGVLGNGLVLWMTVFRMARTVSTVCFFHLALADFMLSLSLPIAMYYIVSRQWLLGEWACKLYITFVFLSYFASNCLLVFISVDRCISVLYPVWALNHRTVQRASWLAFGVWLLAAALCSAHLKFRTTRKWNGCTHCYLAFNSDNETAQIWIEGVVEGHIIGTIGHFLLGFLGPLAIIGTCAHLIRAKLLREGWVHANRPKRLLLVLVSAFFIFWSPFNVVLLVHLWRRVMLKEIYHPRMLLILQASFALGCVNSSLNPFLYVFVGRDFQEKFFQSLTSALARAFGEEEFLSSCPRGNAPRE
(Quantitative high-throughput screening tests each substance at several concentrations.)
Turning to `Cc1cc(Br)cc2c1N(Cc1ccccc1OC(C)C)C(=O)C2=O`, the activation is inactive: -30.9%. For `CC1CCc2onc(C(=O)N3CCN(c4cccc(Cl)c4)CC3)c2C1` (centres undefined) the value was inactive: -17.7%; for `CCc1nn2c(=O)c(S(=O)(=O)Nc3ccc(C)c(C)c3)c(C)nc2s1`, inactive: 19.8%. Regarding `CCOC(=O)CNC(=O)c1cc2c(=O)n3cccc(C)c3nc2n1C`, the activation was inactive: -0.302%.

With `CC(=O)CC/C=C(\C)CC/C=C(\C)CC/C=C(\C)CCC=C(C)C`, the activation is inactive: 30.6%. The same measure for `Cc1ccc2c(=O)cc(C(=O)Nc3sc4c(c3C(=O)NCC3CCCO3)CCCC4)oc2c1C` (centres undefined): inactive: -3.99%; for `Cc1ccc(Cl)cc1NC(=O)CCc1c(C)nc2c3cccnc3nn2c1C`: inactive: -8.16%; for `O=C(c1cccc(Cl)c1)N1c2ncnn2C2(CCCCC2)[C@@H]2CCCC[C@@H]21`: inactive: -20.2%. `Cc1ccc2c(c1)N(C(=O)N1CCC(C(=O)NCCc3ccccc3)CC1)CC(C)O2` (centres undefined): the activation is inactive: -8.79%. For `COc1ccc(-c2ccc3c(N)c(C(=O)NCc4ccc(C)cc4)sc3n2)cc1` the value was inactive: -9.97%. On to `CC(C)(C)OC(=O)N1CCC(c2c(C(=O)NCCN3CCOCC3)cnn2-c2ccc(F)cc2)CC1`, for which the activation is inactive: -0.253%. In the case of `COc1ccc(C)cc1NC(=O)C(Cc1ccccc1)NS(=O)(=O)c1ccc(Br)s1` (centres undefined), the activation was inactive: 29.8%. For `O=C(COc1ccc(F)cc1)Nc1nnc(SCc2cc(=O)n3ccccc3n2)s1` the value was inactive: 2%; for `CCOc1ccc(-c2nonc2NC(=O)c2oc3cc(C)ccc3c2C)cc1OCC`, inactive: -4.97%; for `COc1ccc(N2Cc3cccc(C(=O)Nc4ccc(Cl)cc4)c3C2=O)cc1`, inactive: 33.6%. The same measure for `CC[N+](CC)(CC)CC(=O)Nc1c(C)cccc1C`: inactive: -2.87%; for `Cc1cc(Cl)ccc1NC(=O)CN1C(=O)COc2ccc(S(=O)(=O)Nc3ccccc3)cc21`: inactive: -0.527%. The same measure for `COc1cccc(Cn2c(SCc3ccc(C(=O)N4CCCCC4)cc3)nc3ccncc32)c1`: inactive: 30.7%. Turning to `O=C(Nc1nc2n(n1)C(c1ccccc1)C=C(c1ccc(Cl)cc1)N2)c1ccco1` (centres undefined), the activation was inactive: -2.16%. For `CCOC(=O)C1CCCN(C(=O)c2ccc3c(c2)sc2nc(-c4ccc(C)cc4C)cn23)C1` (centres undefined) the value was inactive: 4.06%; for `Cc1ccc(CN(Cc2ccco2)C(=O)COc2cccc(C)c2C)o1`, inactive: 7.91%; for `CCc1ccccc1NC(=O)c1sc(-n2nc(C)c(Cc3ccccc3)c2C)nc1C`, inactive: -8.74%. With `COCc1cc(C)nc2sc3c(=O)n(-c4ccccc4C(F)(F)F)nnc3c12`, the activation is inactive: 7.55%.

As to `COc1ccc(CNC(=O)C2CCN(S(=O)(=O)c3ccc4c(c3)CCCN4C(C)=O)CC2)cc1`, the activation is inactive: 2.38%.

Turning to `Cc1ccc(C)c(CSc2nnc3[nH]c(=O)cc(-c4ccccc4)n23)c1`, the activation is inactive: -1.24%.

In the case of `CCOC(=O)c1c(S(=O)(=O)NCC(=O)NCc2ccccc2Cl)c(C)n(C)c1C`, the activation is inactive: 0.0738%.

Consider `CCCn1cc(S(=O)(=O)c2cc(C)ccc2C)c(=O)c2cc(F)c(N3CCN(CC)CC3)cc21`, for which the activation was inactive: -21.5%. For `Cc1cccc(C)c1-n1ncc(C(=O)N2CCN(c3ncccn3)CC2)c1C1CCN(C(=O)OC(C)(C)C)CC1` the value was inactive: -5.76%; for `COCCCn1c(=O)c2sccc2n2c(CCCC(=O)NC3CCC(C)CC3)nnc12` (centres undefined), inactive: -9.31%. The same measure for `Cc1cccc(NC(=O)C2CCN(S(=O)(=O)c3ccc4c(c3)CCCN4C(=O)C3CCC3)CC2)c1`: inactive: -15.1%; for `COc1ccc(NC(=O)CSc2cn(CCNC(=O)c3c(F)cccc3F)c3ccccc23)cc1`: inactive: 21.5%. For `COc1ccc(C(=O)N(Cc2ccc(N(C)C)cc2)CC2CCCO2)cc1` (centres undefined) the value was inactive: -16.2%; for `COc1cc(NC(=O)CSc2nc(-c3ccc(C(C)C)cc3)no2)cc(OC)c1`, inactive: 4.93%; for `CCCN1CCN(CCCNC(=O)Cn2nc(C)n3c(cc4c(OC)cccc43)c2=O)CC1`, inactive: -2.39%. With `CCN1CCN(Cc2c(O)ccc3c(=O)c(Oc4ccccc4C(C)C)c(C(F)(F)F)oc23)CC1`, the activation is inactive: -4.86%.

In the case of `Cc1ccc(NC(=O)CSc2nc3ccc(NC(=O)CCc4ccccc4)cc3s2)cc1`, the activation was active: 65.9%. For `COc1ccc(-c2noc(-c3ccc(NC4CCCC4)c([N+](=O)[O-])c3)n2)cc1OC` the value was inactive: -47.8%; for `COc1cc(Cl)c(C)cc1NC(c1ccccc1)c1nnc(-c2ccccc2Cl)o1` (centres undefined), inactive: -30.5%. With `Cc1ccccc1CNC(=O)c1ccc2nc(C(C)C)oc2c1`, the activation was inactive: -11.1%. For `CCN(C(=O)Cn1c(=O)n(Cc2ccccc2)c(=O)c2c1c1cc(OC)ccc1n2C)c1ccccc1` the value was inactive: -4.69%; for `Cc1ccc(NC(=O)Cn2cnc3c2c(=O)n(C)c(=O)n3C)cc1C`, inactive: 10.1%. Take `Cc1ccc(CNC(=O)c2cc3ccc4cccnc4c3[nH]2)cc1`: the activation is inactive: 34%. In the case of `Cc1ccc(C)c(N2CCN(S(=O)(=O)c3cn(C)c(C)n3)CC2)c1`, the activation was inactive: 4.71%. On to `COc1ccc(C2=Nc3ccc(OC(F)(F)F)cc3NC(c3cccnc3)=N2)cc1`, for which the activation is inactive: 14.9%. For `CC(=O)Nc1ccc2nc(NC(=O)CS(=O)(=O)c3ccc(C)cc3)sc2c1` the value was inactive: 45%; for `CCC(C)n1c(=N)c(C(=O)NC2CCCCC2)cc2c(=O)n3ccccc3nc21` (centres undefined), inactive: -9.2%; for `Cc1ccc(C(=O)c2oc3ccccc3c2NC(=O)c2cc(=O)c3cc(C)ccc3o2)cc1`, inactive: -0.24%. With `O=C(Nc1ccc(Cl)cc1)N1CCC(CN2CCCCCC2)CC1`, the activation was inactive: -10.9%. For `COc1cccc(Cn2ccn(-c3ccc(F)cc3)c(=O)c2=O)c1` the value was inactive: -7.92%.

Regarding `Cc1ccc(NC(=O)c2nnn(Cc3cccc(C(F)(F)F)c3)c2N)c(C)c1`, the activation is active: 93.4%. For `Cc1cccc(Cn2c(SCc3ccc(C(=O)NCc4ccccc4)cc3)nc3cccnc32)c1` the value was inactive: -4.93%; for `COc1ccc(NC(=O)Cn2cc(C(=O)c3ccncc3)c(=O)c3cc(C)ccc32)cc1Cl`, inactive: -2.18%; for `COc1ccc(CNC(=O)CCc2c(C)c3ccc(OC)c(C)c3oc2=O)cc1OC`, inactive: 3.1%. For `CCNC(=O)C1CCCN(c2ncnc3onc(C)c23)C1` (centres undefined), the activation is inactive: 6.66%. For the compound `COC(=O)c1ccc(-n2nnc(-c3nc(-c4ccccc4Cl)no3)c2C)cc1`, the activation was inactive: -10.9%. The same measure for `Cc1nc2ccn(Cc3ccco3)c(=O)c2cc1C(=O)Nc1ccc(F)cc1`: inactive: -14%; for `COc1ccc(NC(=O)Cn2nc(-c3ccccc3)c3cnc4ccc(C)cc4c32)cc1`: inactive: -13.9%.

For the compound `CN1CCN(C(=O)Cn2c(-c3cccs3)cc3ccccc32)CC1`, the activation was inactive: -1.73%. For `Cc1ccc(N2C(=O)CS(=O)(=O)C23C(=O)N(Cc2ccccc2C)c2ccccc23)cc1Cl` (centres undefined) the value was inactive: 17.2%; for `COc1cc(OC)cc(C(=O)Nc2ccc(-c3nc4ccccc4s3)c(C)c2)c1`, inactive: 11%. Turning to `CCOC(=O)c1c(NC(=O)COc2ccc(CC)cc2)sc2c1CCCC2`, the activation was inactive: -19.1%. The same measure for `COc1ccc(-n2c(=O)[nH]c3cc(C(=O)NCCc4ccc(Cl)cc4)ccc3c2=O)cc1OC`: inactive: 32.5%. On to `CCC(Sc1ncccc1C(=O)Oc1ccccc1Cl)C(=O)Nc1ccccc1OC` (centres undefined), for which the activation is inactive: -30.5%. The same measure for `COc1ccc(NC(=O)C(NC(=O)C2CCC(C)CC2)C(C)C)cc1` (centres undefined): inactive: -2.79%.

Take `Cc1nn(C)c2c1c(C(F)(F)F)cc(=O)n2C(C)C(=O)NCCC(C)C` (centres undefined): the activation was inactive: -1.04%. Regarding `Cc1ccc2c(=O)c(C(=O)c3ccccc3)cn(CC(=O)Nc3ccc(C)c(Cl)c3)c2n1`, the activation is inactive: 5.8%. For `CCCNC(=O)c1ccc2c(c1)nc(C)n2-c1cccc(C)c1` the value was inactive: -5.62%. For `CC(=O)c1cccc(-n2c(=O)c3c4c(sc3n(CC(=O)Nc3ccccc3F)c2=O)CN(C(C)=O)CC4)c1` the value was inactive: 7.74%; for `COc1cc(NC(=O)c2ccc3c(Cl)c4c(nc3c2)CCC4)cc(OC)c1OC`, inactive: 13.3%; for `O=C(COc1ccc([N+](=O)[O-])cc1)N1CCC(c2nc3ccccc3s2)CC1`, inactive: 31.5%. For `CCOC(=O)Cn1c(=O)c2c(nc(N3CCOCC3)n2Cc2ccccc2)n(C)c1=O` the value was inactive: -13.4%; for `CC(C)(CC(=O)OCC(=O)Nc1ccccc1F)CC1=NS(=O)(=O)c2ccccc2N1`, active: 112%. On to `CCOc1ccc(N(C(C)C(=O)NCCSc2ccc(Cl)cc2)S(C)(=O)=O)cc1` (centres undefined), for which the activation was inactive: 40%. The same measure for `CCc1ccc(CNC(=O)C2CCN(c3nnc(C)c4c(C)n(-c5ccc(C)cc5)nc34)CC2)cc1`: inactive: -16.7%; for `COc1cc(-c2ccc(=O)[nH]n2)ccc1OC(F)F`: inactive: 9.23%; for `Cc1cc(NC(=O)c2cc(-c3ccc(Br)cc3)on2)nn1Cc1ccc(Cl)cc1`: inactive: -0.293%. The same measure for `O=C(Nc1nnc(S(=O)(=O)N2CCCCCC2)s1)c1ccccc1F`: inactive: 49.7%; for `CCOC(=O)C1CCN(c2cc(C)nc3c(-c4ccccc4OC)c(C)nn23)CC1`: inactive: -14.8%. Take `O=C(Cn1nc(-c2ccccc2)c2cnc3ccc(F)cc3c21)NC1CCCC1`: the activation was inactive: -18.6%. For `CCOc1cccc2sc(N3CCN(C(=O)C(C)(C)C)CC3)nc12` the value was inactive: -14.2%. Consider `Cc1nc(N2CCOCC2)c2c(C(=O)N(C)Cc3ccccc3)c(C)oc2n1`, for which the activation is inactive: -11.7%. For `Cc1cc(NC(=O)CSc2nc3c([nH]c4ccccc43)c(=O)n2-c2ccccc2F)no1` the value was inactive: -91.5%; for `CCCCNc1nc(Oc2ccc(=O)n(-c3ccccc3)n2)nc(N(CC)CC)n1`, inactive: -9.28%. For `Cc1ccc(-c2nnc(SCC(=O)N3CCCc4ccccc43)o2)cc1` the value was inactive: -5.51%.

Source of the values: PubChem BioAssay AID1346428 (National Center for Advancing Translational Sciences (NCATS), 2018).
